Experimental data as given in the RNAGym collection of RNA variant scans (doi:10.7554/elife.90254).
The source gives no read counts; variants with many changes may rest on few reads.

B1: OR4K15 (parent)
chain: GUUAACGGUCAUAGGCCAUGGAAACUAGGAGCACCAUUUCGCUGCCAGUGAAGAAAUGAACAAAGAAAAUCUGGGCCAGGCAGGCAUCAAAAGAAAUAGUCUUGCGCUCAACCAGAAAGUCUGUAAUCAUUUUAAGGGUA

Variants of: B1
Assay: self-cleavage, relative activity (ratio to wild type); higher = more cleavage; in vitro, sequencing; the parent is a self-cleaving ribozyme

Variant | self-cleavage
GUUAACGGUCAUAGGCCAUGGAAACUAGGAGCACCAUCUCGCUGCCAGUGAAGAAAUGUACAAAGAAAAUCUGGGCCAGGCAGGCAUCAAAAGAAAUAGCCUUGCGCUCAACCAGAAAGUCUGUAAUCAUUUUAAGGGUA [U38C A59U U100C] | 2.44
GUUAACGGUCAUAGGCCAUGGAAACUAGGAGCACCAUCUCGCUGCCAGUGAAGAAAUGAGCAAAGAAGAACUGGGCCAGGCAGGCAUCAAAAGAAAUAGUCUUGCGCUCAACCAGAAAGUCUGUAAUCAUUAUAAGGGUA [U38C A60G A68G U70A U132A] | 0.68
GUUAACGGUCAUAGGCCAUGGAAACUAGGAGCACCAUCUCGCUGCCAGUGAAGAAAUGAGCAAAGAAAAUCUGGGCCAGGCAGGCAUCAGAAGAAAUAGUCUUGCGCUCAACCAGAAAGUCUGUAUUCAUUUUAAGGGUA [U38C A60G A90G A126U] | 0.31
GUUAACGGUCAUAGGCCAUGGAAACUAGGAGCACCAUCUCGCUGCCAGUGAAGAAAUGAGCAAAGAAAAUCUGGGCCAGGCAGGCAUCAAAAGAAAUAGUCUUGCGCUCAACCAGAGAGUCUGUAAUCAUUUUAAGGGUA [U38C A60G A117G] | 1.33
GUUAACGGUCAUAGGCCAUGGAAACUAGGAGCACCAUCUCGCUGCCAGUGAAGAAAUGAGCAAAGAAAAUCUGGGCCAGGCAGGCAUCAAAAGAAAUAGUCUUGCGCUCAACCAGAAAGUCCGUAAUCAUUCUAAGGGUA [U38C A60G U122C U132C] | 1
GUUAACGGUCAUAGGCCAUGGAAACUAGGAGCACCAUCUCGCUGCCAGUGAAGAAAUGAACGAAGAAAAUCUGGGCCAGGCAGGCAUCAAAAGAAAUAGUCUUGCGCUCAACCGGAAAGUCUGUAAUCAUUUUAAGGGUA [U38C A62G A114G] | 0.32
GUUAACGGUCAUAGGCCAUGGAAACUAGGAGCACCAUCUCGCUGCCAGUGAAGAAAUGAACGAAGAAAAUCUGGGCCAGGCAGGCAUCAAAAGAAAUAGUCUUGUGCUCAACCAGAAAGUCUGUAAUCAUUUUAAGGGUA [U38C A62G C105U] | 0.15
GUUAACGGUCAUAGGCCAUGGAAACUAGGAGCACCAUCUCGCUGCCAGUGAAGAAAUGAACGAAGAAAAUCUGGGCCAGGCAGGCAUCAAAAGAAAUAGUCUUGCGCCCAACCAGAAAGUCUGUAAUCAUUUUAAGGGUA [U38C A62G U108C] | 0.04
GUUAACGGUCAUAGGCCAUGGAAACUAGGAGCACCAUCUCGCUGCCAGUGAAGAAAUGAACUAAGAAAAUCUGGGCCAGGCAGGCAUCGAAAGAAAUCGUCUUGCGCUCAACCAGAAAGUCUGUAAUCAUUUUAAGGGUA [U38C A62U A89G A98C] | 2.07
GUUAACGGUCAUAGGCCAUGGAAACUAGGAGCACCAUCUCGCUGCCAGUGAAGAAAUGAACUAAGAAAAUCUGGGCCAGGCAGGCAUCAAAAGAAAUAGUCUUGCGCUCAACCAGAGAGUUUGUAAUCAUUUUAAGGGUA [U38C A62U A117G C121U] | 2.17
GUUAACGGUCAUAGGCCAUGGAAACUAGGAGCACCAUCUCGCUGCCAGUGAAGAAAUGAACAGAGAAAAUCUGGGCCAGGCAGGCAUCGAAAGAAAUAGUCUUGCGCUCAACCAGAAAGUCUGUAAUCAUUUUGAGGGUA [U38C A63G A89G A134G] | 0.85
GUUAACGGUCAUAGGCCAUGGAAACUAGGAGCACCAUCUCGCUGCCAGUGAAGAAAUGAACAGAGAAAAUCUGGGCCAGGCAGGCAUCAAAAGAAAUAGUCUUGCGCUCAACCAGAAAGUCUGUAAUCAUCUUAAGGGUA [U38C A63G U131C] | 1.57
GUUAACGGUCAUAGGCCAUGGAAACUAGGAGCACCAUCUCGCUGCCAGUGAAGAAAUGAACAAGGAAAGUCUGGGCCAGGCAGGCAUCAAAAGAAAUAGUCUUGCGCUCAACCAGAAAGUCUGUAAUCAUUUUAAGGGUA [U38C A64G A69G] | 1.51
GUUAACGGUCAUAGGCCAUGGAAACUAGGAGCACCAUCUCGCUGCCAGUGAAGAAAUGAACAAGGAAAAUCUGGGCCAGGCAGGCAUCAAAAGGAAUAGUCUUGCGCUCAACCAGAAAGUCUGUAAUCACUUUAAGAGUA [U38C A64G A94G U130C G137A] | 0.73
GUUAACGGUCAUAGGCCAUGGAAACUAGGAGCACCAUCUCGCUGCCAGUGAAGAAAUGAACAAGGAAAAUCUGGGCCAGGCAGGCAUCAAAAGAAAUAGUCUUGCGCUCAACCUGAAAGUCUGUAAUCAUUUUAAGGGUA [U38C A64G A114U] | 0.12
GUUAACGGUCAUAGGCCAUGGAAACUAGGAGCACCAUCUCGCUGCCAGUGAAGAAAUGAACAAGGAAAAUCUGGGCCAGGCAGGCAUCAAAAGAAAUAGUCUUGCGCUCAACCAGAAUGUCUGUAAUCAUUUUAAGGGUA [U38C A64G A118U] | 0.49
GUUAACGGUCAUAGGCCAUGGAAACUAGGAGCACCAUCUCGCUGCCAGUGAAGAAAUGAACAAGGAAAAUCUGGACCAGGCAGGCAUCAAAAGAAAUAGUCUUGCGCUCAACCAGAAAGUCUGUAAUCAUUUUAAGGGUA [U38C A64G G75A] | 0.24
GUUAACGGUCAUAGGCCAUGGAAACUAGGAGCACCAUCUCGCUGCCAGUGAAGAAAUGAACAAAGGAAAUCUGGGCCAGGCAGGCAUCAAAAGAAAUAGUCUUGCGCUCAUCCAGAGAGUCUGUAAUCAUUUUAAGGGUA [U38C A66G A111U A117G] | 0.08
GUUAACGGUCAUAGGCCAUGGAAACUAGGAGCACCAUCUCGCUGCCAGUGAAGAAAUGAACAAAGGAAAUCUGGGCCAGACAGGCAUCAAAAGAAAUAGUCUUGCGCUCGACCAGAAAGUCUGUAAUCAUUUUAAGGGUA [U38C A66G G80A A110G] | 0.02
GUUAACGGUCAUAGGCCAUGGAAACUAGGAGCACCAUCUCGCUGCCAGUGAAGAAAUGAACAAAGAGAAUCUGGGCCAGGCGGGCAUCAAAAGAAAUAGUCUUGCGCUCAACCAGAGAGUCUGUAAUCACUUUAAGGGUA [U38C A67G A82G A117G U130C] | 0.4
